# From the supplement of paper PMC8728848
# The other results are listed elsewhere or left out.
# What was measured:
# Experiment in all cases: glycan array binding signal (z-score within array); higher = stronger binding
# Conditions in all cases: glycan notation: IUPAC condensed, linker removed
# [1] = target: GlcNAc(b1-3)Gal(b1-3)GalNAc
# How it was run: (§1)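 Glycan array data came from 3228 arrays in the Consortium for Functional Glycomics database, and only arrays with an available protein sequence were kept. Glycan names were put into IUPAC-condensed notation, and columns mapping to the same glycan were averaged. The binding signal is a within-array Z-score, averaged across arrays of one protein sequence run at different concentrations or buffers and across linkers. A negative Z-score can be read as non-binding.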
# [2] = target: GlcNAc(b1-3)Gal(b1-4)Glc
# How it was run: as §1
# [3] = target: GlcNAc(b1-3)Gal(b1-4)GlcNAc
# How it was run: as §1
# [4] = target: GlcNAc(b1-3)Gal(b1-4)GlcNAc(b1-2)Man(a1-3)[GlcNAc(b1-3)Gal(b1-4)GlcNAc(b1-2)Man(a1-6)]Man(b1-4)GlcNAc(b1-4)GlcNAc
# How it was run: as §1
# [5] = target: GlcNAc(b1-3)Gal(b1-4)GlcNAc(b1-2)Man(a1-3)[GlcNAc(b1-3)Gal(b1-4)GlcNAc(b1-2)Man(a1-6)]Man(b1-4)GlcNAc(b1-4)[Fuc(a1-6)]GlcNAc
# How it was run: as §1
# [6] = target: GlcNAc(b1-3)Gal(b1-4)GlcNAc(b1-2)[GlcNAc(b1-3)Gal(b1-4)GlcNAc(b1-6)]Man(a1-6)[GlcNAc(b1-3)Gal(b1-4)GlcNAc(b1-2)Man(a1-3)]Man(b1-4)GlcNAc(b1-4)GlcNAc
# How it was run: as §1
# [7] = target: GlcNAc(b1-3)Gal(b1-4)GlcNAc(b1-3)Gal(b1-4)GlcNAc
# How it was run: as §1
# [8] = target: GlcNAc(b1-3)Gal(b1-4)GlcNAc(b1-3)Gal(b1-4)GlcNAc(b1-2)Man(a1-3)[GlcNAc(b1-3)Gal(b1-4)GlcNAc(b1-3)Gal(b1-4)GlcNAc(b1-2)Man(a1-6)]Man(b1-4)GlcNAc(b1-4)GlcNAc
# How it was run: as §1
# [9] = target: GlcNAc(b1-3)Gal(b1-4)GlcNAc(b1-3)Gal(b1-4)GlcNAc(b1-2)Man(a1-3)[GlcNAc(b1-3)Gal(b1-4)GlcNAc(b1-3)Gal(b1-4)GlcNAc(b1-2)Man(a1-6)]Man(b1-4)GlcNAc(b1-4)[Fuc(a1-6)]GlcNAc
# How it was run: as §1
# [10] = target: GlcNAc(b1-3)Gal(b1-4)GlcNAc(b1-3)Gal(b1-4)GlcNAc(b1-2)[GlcNAc(b1-3)Gal(b1-4)GlcNAc(b1-3)Gal(b1-4)GlcNAc(b1-6)]Man(a1-6)[GlcNAc(b1-3)Gal(b1-4)GlcNAc(b1-3)Gal(b1-4)GlcNAc(b1-2)Man(a1-3)]Man(b1-4)GlcNAc(b1-4)[Fuc(a1-6)]GlcNAc
# How it was run: as §1
# [11] = target: GlcNAc(b1-3)Gal(b1-4)GlcNAc(b1-3)Gal(b1-4)GlcNAc(b1-3)Gal(b1-4)GlcNAc(b1-2)Man(a1-3)[GlcNAc(b1-3)Gal(b1-4)GlcNAc(b1-3)Gal(b1-4)GlcNAc(b1-3)Gal(b1-4)GlcNAc(b1-2)Man(a1-6)]Man(b1-4)GlcNAc(b1-4)GlcNAc
# How it was run: as §1
# [12] = target: GlcNAc(b1-3)Gal(b1-4)GlcNAc(b1-3)Gal(b1-4)GlcNAc(b1-3)Gal(b1-4)GlcNAc(b1-2)Man(a1-3)[GlcNAc(b1-3)Gal(b1-4)GlcNAc(b1-3)Gal(b1-4)GlcNAc(b1-3)Gal(b1-4)GlcNAc(b1-2)Man(a1-6)]Man(b1-4)GlcNAc(b1-4)[Fuc(a1-6)]GlcNAc
# How it was run: as §1
# [13] = target: GlcNAc(b1-3)Gal(b1-4)GlcNAc(b1-3)Gal(b1-4)GlcNAc(b1-3)Gal(b1-4)GlcNAc(b1-2)[GlcNAc(b1-3)Gal(b1-4)GlcNAc(b1-3)Gal(b1-4)GlcNAc(b1-3)Gal(b1-4)GlcNAc(b1-6)]Man(a1-6)[GlcNAc(b1-3)Gal(b1-4)GlcNAc(b1-3)Gal(b1-4)GlcNAc(b1-3)Gal(b1-4)GlcNAc(b1-2)Man(a1-3)]Man(b1-4)GlcNAc(b1-4)[Fuc(a1-6)]GlcNAc
# How it was run: as §1
# [14] = target: GlcNAc(b1-3)Gal(b1-4)GlcNAc(b1-3)Gal(b1-4)GlcNAc(b1-3)Gal(b1-4)GlcNAc(b1-3)Gal(b1-4)GlcNAc(b1-2)Man(a1-3)[GlcNAc(b1-3)Gal(b1-4)GlcNAc(b1-3)Gal(b1-4)GlcNAc(b1-3)Gal(b1-4)GlcNAc(b1-3)Gal(b1-4)GlcNAc(b1-2)Man(a1-6)]Man(b1-4)GlcNAc(b1-4)GlcNAc
# How it was run: as §1
# [15] = target: GlcNAc(b1-3)Gal(b1-4)GlcNAc(b1-3)Gal(b1-4)GlcNAc(b1-3)Gal(b1-4)GlcNAc(b1-3)Gal(b1-4)GlcNAc(b1-2)Man(a1-3)[GlcNAc(b1-3)Gal(b1-4)GlcNAc(b1-3)Gal(b1-4)GlcNAc(b1-3)Gal(b1-4)GlcNAc(b1-3)Gal(b1-4)GlcNAc(b1-2)Man(a1-6)]Man(b1-4)GlcNAc(b1-4)[Fuc(a1-6)]GlcNAc
# How it was run: as §1
# [16] = target: GlcNAc(b1-3)Gal(b1-4)GlcNAc(b1-3)Gal(b1-4)GlcNAc(b1-3)Gal(b1-4)GlcNAc(b1-3)Gal(b1-4)GlcNAc(b1-2)[GlcNAc(b1-3)Gal(b1-4)GlcNAc(b1-3)Gal(b1-4)GlcNAc(b1-3)Gal(b1-4)GlcNAc(b1-3)Gal(b1-4)GlcNAc(b1-6)]Man(a1-6)[GlcNAc(b1-3)Gal(b1-4)GlcNAc(b1-3)Gal(b1-4)GlcNAc(b1-3)Gal(b1-4)GlcNAc(b1-3)Gal(b1-4)GlcNAc(b1-2)Man(a1-3)]Man(b1-4)GlcNAc(b1-4)[Fuc(a1-6)]GlcNAc
# How it was run: as §1
# [17] = target: GlcNAc(b1-3)Gal(b1-4)GlcNAc(b1-3)Gal(b1-4)GlcNAc(b1-3)GalNAc
# How it was run: as §1
# [18] = target: GlcNAc(b1-3)Gal(b1-4)GlcNAc(b1-3)GalNAc
# How it was run: as §1
# [19] = target: GlcNAc(b1-3)Gal(b1-4)GlcNAc(b1-3)[GlcNAc(b1-3)Gal(b1-4)GlcNAc(b1-3)]GalNAc
# How it was run: as §1
# [20] = target: GlcNAc(b1-3)Gal(b1-4)GlcNAc(b1-6)[Gal(b1-3)]GalNAc
# How it was run: as §1
# [21] = target: GlcNAc(b1-3)Gal(b1-4)GlcNAc(b1-6)[GlcNAc(b1-3)Gal(b1-3)]GalNAc
# How it was run: as §1
# [22] = target: GlcNAc(b1-3)Gal(b1-4)GlcNAc(b1-6)[GlcNAc(b1-3)]Gal(b1-4)GlcNAc
# How it was run: as §1
# [23] = target: GlcNAc(b1-3)GalNAc
# How it was run: as §1
# [24] = target: GlcNAc(b1-3)Man
# How it was run: as §1
# [25] = target: GlcNAc(b1-3)[GlcNAc(b1-4)][GlcNAc(b1-6)]GlcNAc
# How it was run: as §1
# [26] = target: GlcNAc(b1-3)[GlcNAc(b1-6)]Gal(b1-4)GlcNAc
# How it was run: as §1
# [27] = target: GlcNAc(b1-3)[GlcNAc(b1-6)]GalNAc
# How it was run: as §1
# [28] = target: GlcNAc(b1-4)Gal(b1-4)GlcNAc
# How it was run: as §1
# [29] = target: GlcNAc(b1-4)GlcNAc
# How it was run: as §1
# [30] = target: GlcNAc(b1-4)GlcNAc(b1-4)GlcNAc
# How it was run: as §1
# [31] = target: GlcNAc(b1-4)GlcNAc(b1-4)GlcNAc(b1-4)GlcNAc(b1-4)GlcNAc
# How it was run: as §1
# [32] = target: GlcNAc(b1-4)GlcNAc(b1-4)GlcNAc(b1-4)GlcNAc(b1-4)GlcNAc(b1-4)GlcNAc
# How it was run: as §1
# [33] = target: GlcNAc(b1-4)[GlcNAc(b1-6)]GalNAc
# How it was run: as §1
# [34] = target: GlcNAc(b1-6)Gal(b1-4)GlcNAc
# How it was run: as §1
# [35] = target: GlcNAc(b1-6)GalNAc
# How it was run: as §1
# [36] = target: GlcNAc6S(b1-3)Gal(b1-4)GlcNAc
# How it was run: as §1
# [37] = target: Kdn(a2-3)Gal(b1-3)GalNAc
# How it was run: as §1
# [38] = target: Kdn(a2-3)Gal(b1-3)GlcNAc
# How it was run: as §1
# [39] = target: Kdn(a2-3)Gal(b1-4)Glc
# How it was run: as §1
# [40] = target: Kdn(a2-3)Gal(b1-4)GlcNAc
# How it was run: as §1
# [41] = target: Kdn(a2-3)Gal(b1-4)[Fuc(a1-3)]GlcNAc
# How it was run: as §1
# [42] = target: Kdn(a2-6)Gal(b1-4)GlcNAc
# How it was run: as §1
# [43] = target: Man(a1-2)Man(a1-2)Man(a1-3)Man
# How it was run: as §1
# [44] = target: Man(a1-2)Man(a1-2)Man(a1-6)[Man(a1-3)]Man
# How it was run: as §1
# [45] = target: Man(a1-2)Man(a1-3)Man
# How it was run: as §1
binder,measurement,setting,value
AFCNVH (Aspergillus fumigatus) (protein) MSLRGFHTTCDTIVLKDKHILSSRCKRPDGTYSFSEIDLNDCLGNNNGKFVWGGESFVDSASQVNLALEGGEGRPMLHAQLNDWHGSVQSASVNLGECIQNEAGGLEYMHC,glycan array binding signal (z-score),[1],-0.412
same,glycan array binding signal (z-score),[2],-0.196
same,glycan array binding signal (z-score),[3],1.25
same,glycan array binding signal (z-score),[4],1.64
same,glycan array binding signal (z-score),[5],0.734
same,glycan array binding signal (z-score),[6],1.43
same,glycan array binding signal (z-score),[7],0.992
same,glycan array binding signal (z-score),[8],1.19
same,glycan array binding signal (z-score),[9],1.68
same,glycan array binding signal (z-score),[10],3.73
same,glycan array binding signal (z-score),[11],4.24
same,glycan array binding signal (z-score),[12],1.59
same,glycan array binding signal (z-score),[13],3.78
same,glycan array binding signal (z-score),[14],2.25
same,glycan array binding signal (z-score),[15],1.62
same,glycan array binding signal (z-score),[16],4.73
same,glycan array binding signal (z-score),[17],-0.352
same,glycan array binding signal (z-score),[18],-0.45
same,glycan array binding signal (z-score),[19],-0.369
same,glycan array binding signal (z-score),[20],-0.642
same,glycan array binding signal (z-score),[21],-0.209
same,glycan array binding signal (z-score),[22],1.68
same,glycan array binding signal (z-score),[23],-0.376
same,glycan array binding signal (z-score),[24],-0.213
same,glycan array binding signal (z-score),[25],-0.338
same,glycan array binding signal (z-score),[26],3.67
same,glycan array binding signal (z-score),[27],0.421
same,glycan array binding signal (z-score),[28],-0.236
same,glycan array binding signal (z-score),[29],2.07
same,glycan array binding signal (z-score),[30],3.22
same,glycan array binding signal (z-score),[31],3.83
same,glycan array binding signal (z-score),[32],3.6
same,glycan array binding signal (z-score),[33],1.64
same,glycan array binding signal (z-score),[34],2.8
same,glycan array binding signal (z-score),[35],1.1
same,glycan array binding signal (z-score),[36],1.19
same,glycan array binding signal (z-score),[37],-0.446
same,glycan array binding signal (z-score),[38],-0.584
same,glycan array binding signal (z-score),[39],-0.406
same,glycan array binding signal (z-score),[40],-0.378
same,glycan array binding signal (z-score),[41],-0.455
same,glycan array binding signal (z-score),[42],-0.094
same,glycan array binding signal (z-score),[43],-0.188
same,glycan array binding signal (z-score),[44],-0.495
same,glycan array binding signal (z-score),[45],-0.451
